Measured values from article PMC4790291, “Short, Synthetic Cationic Peptides Have Antibacterial Activity against Mycobacterium smegmatis by Forming Pores in Membrane and Synergizing with Antibiotics” (Antibiotics, 2015).
No end group written: not given here.

Test system: M. smegmatis
Conditions: MB7H9 broth with 10% OADC, 48 h, 37 °C

**Q.** With KRAKKFFKKLK-NH2 [ATRA-1A] as the substance, how does the MIC read?
**A.** 22.01 µM
